We go through 109 sequences from the supplement of paper PMC3334620.

In all, about 33,000 sequences were measured (“E-score (-0.5 to 0.5)”: median about -0.054, highest 2% from about 0.35 on). Some of the results follow.

For the experiment, the target named is T1, Stb5 (UniProt P38699).
T1 sequence: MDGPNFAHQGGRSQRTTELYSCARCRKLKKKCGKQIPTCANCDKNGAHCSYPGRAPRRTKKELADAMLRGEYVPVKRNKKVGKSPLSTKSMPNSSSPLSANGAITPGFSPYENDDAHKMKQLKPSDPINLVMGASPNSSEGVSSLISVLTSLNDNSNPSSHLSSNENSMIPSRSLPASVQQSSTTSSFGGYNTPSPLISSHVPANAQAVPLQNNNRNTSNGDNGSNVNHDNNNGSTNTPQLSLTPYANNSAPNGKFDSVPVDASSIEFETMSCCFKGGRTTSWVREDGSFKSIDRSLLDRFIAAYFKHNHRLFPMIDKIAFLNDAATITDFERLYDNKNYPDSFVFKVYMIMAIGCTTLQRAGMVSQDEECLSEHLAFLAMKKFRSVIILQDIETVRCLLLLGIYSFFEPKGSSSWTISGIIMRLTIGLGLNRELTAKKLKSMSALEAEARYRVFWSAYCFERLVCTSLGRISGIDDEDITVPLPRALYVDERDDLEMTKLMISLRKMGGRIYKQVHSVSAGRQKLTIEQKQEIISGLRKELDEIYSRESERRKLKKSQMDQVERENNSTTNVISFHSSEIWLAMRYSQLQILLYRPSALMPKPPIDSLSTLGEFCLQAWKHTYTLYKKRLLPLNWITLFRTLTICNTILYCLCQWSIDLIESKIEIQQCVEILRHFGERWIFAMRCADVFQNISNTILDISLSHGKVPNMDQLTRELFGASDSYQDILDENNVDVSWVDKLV
Nature of the experiment: PBM E-score (8-mer binding enrichment) (E-score (-0.5 to 0.5)); higher = stronger / more preferred TF binding; most listed sequences are background and not binding sites. Conditions: protein concentration: 200 nM; construct: GST-full length. An outline of the steps: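 E-scores (a modified Wilcoxon-Mann-Whitney statistic) were assigned by the Universal PBM Analysis Suite to every ungapped eight-base word pooled with its reverse complement. The input came from universal all-10-mer Agilent arrays made double-stranded by primer extension and probed with GST-tagged yeast transcription factors at about 100-200 nM. Fluorescent anti-GST detected bound protein, and masliner normalised the scans.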
Take ACTCCTCG: the “PBM E-score” value was -0.248.

For the sequence ACAGTGCG, the “PBM E-score” value is -0.0748.

Turning to GAGCGATA, the “PBM E-score” value is -0.0773.

Consider AAGAATAT, for which the “PBM E-score” value was 0.0316.

In the case of GCGCACAA, the “PBM E-score” value is -0.0271.

Consider CTAGTTGC, for which the “PBM E-score” value was -0.00724.

Consider AGTCGTTA, for which the “PBM E-score” value is -0.191.

On to CGTCCCCC, for which the “PBM E-score” value was -0.00848.

Turning to ACGGTGTA, the “PBM E-score” value came out at 0.348.

As for ATAATCGG, the “PBM E-score” value came to 0.16.

Turning to GCGGAAAC, the “PBM E-score” value is 0.0966.

In the case of ATACCATC, the “PBM E-score” value was -0.0698.

Take CCTTGTTA: the “PBM E-score” value is -0.065.

With ATCTGATG, the “PBM E-score” value was -0.0851.

On to AACTCTTG, for which the “PBM E-score” value was -0.358.

For AACACGGC, the “PBM E-score” value came out at 0.0701.

With AGTCTGGG, the “PBM E-score” value is -0.291.

On to ATAAGGCC, for which the “PBM E-score” value stood at 0.359.

Turning to AGTCGATA, the “PBM E-score” value is -0.208.

Consider AGATGGGA, for which the “PBM E-score” value is -0.13.

For the sequence AGCAATGC, the “PBM E-score” value is -0.169.

On to AGACAGAT, for which the “PBM E-score” value is -0.181.

For the sequence GCGACTCC, the “PBM E-score” value is -0.106.

For the sequence TGTCATAA, the “PBM E-score” value was -0.107.

On to CTCTGCAA, for which the “PBM E-score” value was -0.142.

Turning to ATTCCTAA, the “PBM E-score” value is -0.0714.

With AAACGAAG, the “PBM E-score” value is -0.0773.

On to CGACGTTC, for which the “PBM E-score” value is -0.228.

With GATCAAAA, the “PBM E-score” value was -0.093.

In the case of GTGCGCCA, the “PBM E-score” value came to 0.057.

On to TGGCTAAA, for which the “PBM E-score” value is -0.0391.

Turning to GTAAAAAA, the “PBM E-score” value amounted to 0.0255.

For GTCGAATA, the “PBM E-score” value was -0.0352.

For CATAATGG, the “PBM E-score” value is -0.0724.

As to CACAGCGA, the “PBM E-score” value is -0.0284.

CCGTTACC: the “PBM E-score” value amounted to 0.19.

ATACGCTA: the “PBM E-score” value amounted to 0.0695.

As for AGACGGAG, the “PBM E-score” value amounted to 0.215.

Take GATATGAA: the “PBM E-score” value was -0.0268.

Consider ATTATGTA, for which the “PBM E-score” value was determined as 0.0338.

As for ATCTTAGA, the “PBM E-score” value is -0.0369.

Consider CACTAATG, for which the “PBM E-score” value is -0.112.

For ACCAGTCT, the “PBM E-score” value is -0.215.

Take ACTCCCCC: the “PBM E-score” value was -0.0621.

Take ACTTGAAC: the “PBM E-score” value is -0.0012.

As to AAGTATAC, the “PBM E-score” value is -0.0677.

For GTGACGCA, the “PBM E-score” value was -0.214.

For ACGTCTGG, the “PBM E-score” value is -0.218.

For the sequence ACCGGTTG, the “PBM E-score” value amounted to 0.196.

Turning to CGTCTCTC, the “PBM E-score” value is -0.127.

Regarding ACTCTTCA, the “PBM E-score” value is -0.248.

In the case of CTTGCGAA, the “PBM E-score” value is 0.0336.

Take ATCGTCGG: the “PBM E-score” value was 0.252.

In the case of ACTCGTTC, the “PBM E-score” value was -0.148.

As for ACTGCGTC, the “PBM E-score” value is -0.0549.

As to ACGGAAAT, the “PBM E-score” value came to 0.306.

Regarding GAACGCAA, the “PBM E-score” value was -0.12.

Consider AACAAAAA, for which the “PBM E-score” value was 0.00198.

Take AGGTTAGG: the “PBM E-score” value was -0.0779.

In the case of ACCCAGGT, the “PBM E-score” value is -0.0611.

Regarding CGCAACTC, the “PBM E-score” value is -0.0694.

Take GCGAGTCA: the “PBM E-score” value was -0.043.

Regarding TAGCACCA, the “PBM E-score” value came to 0.126.

Turning to CTCGCGCC, the “PBM E-score” value stood at 0.0233.

For the sequence AGCGACTA, the “PBM E-score” value was -0.228.

Take ACATCCTA: the “PBM E-score” value is -0.0987.

Regarding CAAGGCTA, the “PBM E-score” value was -0.0878.

Take ACTCTTTA: the “PBM E-score” value was -0.166.

In the case of GTGCGTGA, the “PBM E-score” value was 0.0894.

As for AATGCGTA, the “PBM E-score” value is 0.0227.

With CCAGCGAC, the “PBM E-score” value was -0.0365.

As for AAAAGACC, the “PBM E-score” value came out at 0.247.

For CATGCAAC, the “PBM E-score” value was -0.0686.

On to AGTATAGG, for which the “PBM E-score” value was -0.0702.

CTAATAAC: the “PBM E-score” value is -0.0301.

For the sequence ATGCCGCC, the “PBM E-score” value is 0.423.

Consider CTTGCATC, for which the “PBM E-score” value was -0.146.

With GGTAAGAC, the “PBM E-score” value was -0.0134.

Regarding CTCAAATA, the “PBM E-score” value is -0.067.

With ACAAGGCC, the “PBM E-score” value is 0.0517.

CTGATTTA: the “PBM E-score” value was found to be 0.16.

For CTTATACA, the “PBM E-score” value is -0.0552.

On to AGCTGGAT, for which the “PBM E-score” value is -0.229.

As for AAACTGGT, the “PBM E-score” value is 0.0745.

Regarding GACACTGA, the “PBM E-score” value is -0.0784.

Take CCTTGAAC: the “PBM E-score” value is -0.221.

As for ACCAATCC, the “PBM E-score” value was -0.0989.

GAGTGTAC: the “PBM E-score” value was -0.0578.

For the sequence GTAGCACA, the “PBM E-score” value was -0.13.

As for AGAGTTTA, the “PBM E-score” value was -0.0332.

Consider CACGTCCG, for which the “PBM E-score” value worked out at 0.12.

Consider AGAGACAT, for which the “PBM E-score” value was -0.151.

Take AGTGACGA: the “PBM E-score” value was -0.191.

As for CGGACGGA, the “PBM E-score” value turned out to be 0.322.

As for GGGGTTAA, the “PBM E-score” value was 0.404.

For the sequence ATGTTCCG, the “PBM E-score” value stood at 0.249.

With AACCGGAT, the “PBM E-score” value stood at 0.161.

Consider ACAATTAG, for which the “PBM E-score” value was -0.156.

As to CCCGCACC, the “PBM E-score” value turned out to be 0.151.

Consider GATCATCC, for which the “PBM E-score” value was 0.122.

Turning to AAGGGCCC, the “PBM E-score” value is -0.0192.

As to ATCACGCG, the “PBM E-score” value was -0.0331.

AAAAGGTG: the “PBM E-score” value is -0.019.

As for ATACTAGG, the “PBM E-score” value was -0.0527.

Turning to GATGATAA, the “PBM E-score” value worked out at 0.0422.

For the sequence AACTGAGA, the “PBM E-score” value was -0.153.

ATTCAAGG: the “PBM E-score” value is -0.326.

Consider GGGCAACA, for which the “PBM E-score” value is -0.0751.

Take CACAAGCA: the “PBM E-score” value is -0.245.
